# Reference: PubChem BioAssay AID463254 (National Center for Advancing Translational Sciences (NCATS), 2010)
# In all, about 330,000 compounds went through this assay and about 40 (0.01%) were called active. Inconclusive results, whose numbers are uncertain, are shown with a selection of clear calls. Calls come from the whole dose curve; as a rule, active = well fitted inhibition curve with a large enough effect; inconclusive = small, poorly fitted or top-dose-only effect, or effect the other way; inactive = flat fitted curve, though single readings scatter. Potencies beside an inconclusive call are fits to weak or partial responses and may not hold up.
# Target: Ubiquitin carboxyl-terminal hydrolase 2 (Homo sapiens) (UniProt O75604)
# Experiment: qHTS Assay for Inhibitors of Ubiquitin-specific Protease USP2a Using CHOP2 as the Reporter;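 for activity change, negative = inhibition: plate controls were DMSO wells for no effect and full inhibition by NEM control for full effect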
# Settings: USP2 core, Ub-CHOP2 coupled fluorogenic reporter, 485/531; activity change, negative = inhibition: at 38.3 µM (top of the series)
# Outline: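 USP2 core (10nM final) preincubated 30min RT with compound in 20mM Tris-HCl pH 8.0, 2mM CaCl2, 2mM beta-mercaptoethanol, 0.05% CHAPS; 25nM Ub-CHOP2 plus 25nM reporter substrate added, fluorescence (Ex485/Em531) read after 60min.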
# Potency is the fitted concentration of half-maximal effect; tags give direction and shape of the fitted curve or compound fluorescence and quenching.
# UniProt O75604, sequence (O75604 whole entry, looked up): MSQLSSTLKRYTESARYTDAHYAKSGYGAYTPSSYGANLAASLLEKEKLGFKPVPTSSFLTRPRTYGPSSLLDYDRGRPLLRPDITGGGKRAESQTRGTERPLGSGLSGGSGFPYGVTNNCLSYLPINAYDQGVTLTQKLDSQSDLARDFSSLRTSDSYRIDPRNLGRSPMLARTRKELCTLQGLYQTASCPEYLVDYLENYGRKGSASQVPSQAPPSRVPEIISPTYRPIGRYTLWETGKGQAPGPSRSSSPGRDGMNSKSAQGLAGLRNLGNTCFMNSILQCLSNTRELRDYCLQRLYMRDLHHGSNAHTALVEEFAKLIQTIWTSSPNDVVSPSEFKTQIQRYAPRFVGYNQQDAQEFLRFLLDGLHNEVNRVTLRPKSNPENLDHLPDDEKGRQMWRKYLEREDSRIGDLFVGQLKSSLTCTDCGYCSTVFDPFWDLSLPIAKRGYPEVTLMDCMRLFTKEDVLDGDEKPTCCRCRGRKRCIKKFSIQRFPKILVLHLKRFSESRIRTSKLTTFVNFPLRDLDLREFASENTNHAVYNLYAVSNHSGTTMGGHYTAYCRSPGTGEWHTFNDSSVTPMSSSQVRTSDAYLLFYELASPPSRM
SMILES,"activity change, negative = inhibition",Potency
CCOC(=O)c1c(-c2ccc(C)cc2)csc1NC(=O)C1CC=CCC1C(=O)O (stereo unspecified),inactive: 2.3%,
CC(=O)N1C(=O)C(=C2C=C(C)OC(C)=C2)c2ccccc21,,"inconclusive: 14.1 µM [fluorescent, single point]"
COc1ccc(-n2c(=S)[nH]c3cc(C(=O)NCc4ccc(F)cc4)ccc3c2=O)c(OC)c1,,"inconclusive: 28.2 µM [falling, single point]"
O=C(CNS(=O)(=O)c1cccs1)N1CCN(c2ccccc2F)CC1,inactive: -1.18%,
O=C(Cc1ccc(S(=O)(=O)N2CCOCC2)s1)Nc1nc2c(s1)CCCC2,,"inconclusive: 22.4 µM [falling, single point]"
CCCCCCc1cc2cc(-c3nnc(-c4ccccc4OC)o3)c(=O)oc2cc1O,,"inconclusive: 1.12 µM [fluorescent, full curve]"
O=C(Nc1ccccc1)Nc1ccccc1C(=O)NCC1CC1,inactive: -0.973%,
Cn1c(SCc2nc3ccccc3s2)nnc1-c1cccs1,,"inconclusive: 5.01 µM [falling, single point]"
COCCN(CCOC)Cc1c(O)ccc2c1O/C(=C\c1ccc(C)o1)C2=O,,"inconclusive: 28.2 µM [fluorescent, single point]"
Cc1ccc(N2C(=O)c3cccc4c(N5CCN(C)CC5)ccc(c34)C2=O)c2cccnc12,,"inconclusive: 11.2 µM [fluorescent, single point]"
O=C1c2ccccc2-c2onc3ccc(N4CCCC4)c1c23,,"inconclusive: 11.2 µM [fluorescent, partial curve]"
CCCCCCOC(=O)C(C#N)c1nc2ccccc2nc1N1CCOCC1 (stereo unspecified),,"inconclusive: 3.16 µM [fluorescent, single point]"
COc1cc(/C=C/[N+](=O)[O-])ccc1OCc1cccc(C(=O)O)c1,,"inconclusive: 28.2 µM [falling, single point]"
CCCC(=O)OCC(=O)Nc1ccc(OC(F)F)cc1,inactive: 0.751%,
CN(c1ccccc1)S(=O)(=O)c1ccc(Cl)c(C(=O)NCCc2c[nH]c3ccccc23)c1,,"inconclusive: 20 µM [falling, single point]"
Cc1ccc(NC(=O)c2cc(-c3ccco3)nc3ccccc23)cc1S(=O)(=O)N1CCOCC1,,"inconclusive: 14.1 µM [falling, single point]"
O=C(N/N=C/c1sc(=O)[nH]c1-[n+]1ccc2ccccc2c1)c1ccccc1[O-],,"inconclusive: 5.01 µM [fluorescent, full curve]"
CSc1nc2c(c(=O)[nH]1)C(c1ccc(Br)cc1)CC(=O)N2 (stereo unspecified),inactive: 1.55%,
Cc1cc(-c2ccc(N=Nc3c(S(=O)(=O)O)cc4cc(S(=O)(=O)O)cc(N)c4c3O)c(C)c2)ccc1N=Nc1c(S(=O)(=O)O)cc2cc(S(=O)(=O)O)cc(N)c2c1O,,active: 10 µM
COc1ccccc1-c1c(C)nn2c(N3CCC(C)CC3)cc(C)nc12,inactive: -0.459%,
COc1ccc(C(=O)N/C(=C\c2cccs2)C(=O)N2CCN(C)CC2)cc1OC,,"inconclusive: 5.01 µM [falling, single point]"
CCOC(=O)C1=C(C)NC2=C(C(=O)CCC2)C1c1cc(OC)ccc1OC (stereo unspecified),inactive: 1.59%,
CCCCNS(=O)(=O)c1ccc(OC)c2ncccc12,inactive: -0.423%,

SMILES,"activity change, negative = inhibition",Potency
CCc1ccccc1OCC(=O)Nc1ccc(N2CCCC2)cc1C,,"inconclusive: 28.2 µM [falling, single point]"
C=CCn1c(N)c(C(=O)Nc2ccccc2OC)sc1=S,inactive: 0.953%,
O=C(CN1C(=O)CSC1=O)Nc1ccc(F)c(F)c1F,inactive: 1.09%,
COc1ccccc1OCC(=O)N/N=C1/C=C(C)CC1,inactive: 1.97%,
CCN(CC)S(=O)(=O)c1ccc(N2CCCC2)c(NC(=O)Cc2c(F)cccc2Cl)c1,inactive: -1.17%,
Cc1ccc(NC(=O)Cn2nc(C)c3ccccc3c2=O)cc1F,,"inconclusive: 5.01 µM [falling, single point]"
CCC(CO)Nc1nc(CN2CCCCC2)nc2scc(-c3ccccc3)c12 (stereo unspecified),,"inconclusive: 22.4 µM [falling, single point]"
Cc1cc2nc3c(=O)n(Cc4ccccc4)c(=O)[nH]c3nc2cc1N,,"inconclusive: 5.01 µM [fluorescent, partial curve]"
COCc1cc(C)nc(OCC(=O)N/N=C\c2cc(C)n(-c3cccc(C(F)(F)F)c3)c2C)c1C#N,,"inconclusive: 22.4 µM [falling, single point]"
O=C(O)CN1C(=O)/C(=C\c2ccccc2OCc2ccc(Cl)cc2Cl)SC1=S,,"inconclusive: 25.1 µM [falling, single point]"
CC(=Nc1ccc(O)cc1)c1sc2ccccc2c1O,inactive: 1.51%,
Cc1ccc(/C=N/NC(=O)c2cc(-c3ccc(C)o3)[nH]n2)cc1,,"inconclusive: 20 µM [falling, single point]"
CC(C)(C)C(=O)Nc1cc(S(=O)(=O)Nc2ccc(Cl)cc2)ccc1O,inactive: 5.18%,
O=c1oc2c(CN3CCCCC3)c(O)ccc2c2c1CCCCC2,,"inconclusive: 25.1 µM [falling, single point]"
COc1ccc(-n2c(Cc3ccccc3)nnc2SCC(=O)N2CCCc3ccccc32)cc1,inactive: 2.32%,
O=C(O)c1cc(Cl)ccc1-c1ccc(/C=C/c2cc(C(F)(F)F)[nH]c(=O)n2)o1,,"inconclusive: 11.2 µM [fluorescent, partial curve]"
CCN(CC)c1ccc2c(c1)OC(N)=C(C#N)C2c1cccnc1 (stereo unspecified),,"inconclusive: 14.1 µM [fluorescent, single point]"
CN1CCS/C1=C\C=C1/SC(=S)N(CC(=O)O)C1=O,,"inconclusive: 10 µM [fluorescent, partial curve]"
COc1ccc(CCNC(=O)CSCc2ccc([N+](=O)[O-])cc2)cc1OC,inactive: 2%,
CCOC(=O)COc1ccccc1/C=N/O,,"inconclusive: 5.01 µM [falling, single point]"
COC(=O)/C(=N\Nc1ccccc1)Sc1nnc(-c2ccc(OC)cc2)n1C,inactive: 4.14%,
CN(C)c1ccc2c3c(cccc13)C(=O)N(c1ccccc1)C2=O,,"inconclusive: 14.1 µM [fluorescent, single point]"
CCC(=O)Nc1c2c(nn1-c1ccc(F)cc1)CS(=O)C2 (stereo unspecified),,"inconclusive: 28.2 µM [falling, single point]"
